Reference: PMC4336329 (PLoS ONE, 2015)
Screen size: about 310,000 compounds; about 2,200 (0.71%) showed an effect of 50% or more. The effect is printed as a negative number. The list shows a part of the results.

Molecular target: human ether-à-go-go-related gene (hERG) potassium channel (human, UniProt Q12809)
Assay: primary screen, population patch clamp on CHO cells stably expressing hERG

Sequence of human ether-à-go-go-related gene (hERG) potassium channel (Q12809 whole entry, looked up): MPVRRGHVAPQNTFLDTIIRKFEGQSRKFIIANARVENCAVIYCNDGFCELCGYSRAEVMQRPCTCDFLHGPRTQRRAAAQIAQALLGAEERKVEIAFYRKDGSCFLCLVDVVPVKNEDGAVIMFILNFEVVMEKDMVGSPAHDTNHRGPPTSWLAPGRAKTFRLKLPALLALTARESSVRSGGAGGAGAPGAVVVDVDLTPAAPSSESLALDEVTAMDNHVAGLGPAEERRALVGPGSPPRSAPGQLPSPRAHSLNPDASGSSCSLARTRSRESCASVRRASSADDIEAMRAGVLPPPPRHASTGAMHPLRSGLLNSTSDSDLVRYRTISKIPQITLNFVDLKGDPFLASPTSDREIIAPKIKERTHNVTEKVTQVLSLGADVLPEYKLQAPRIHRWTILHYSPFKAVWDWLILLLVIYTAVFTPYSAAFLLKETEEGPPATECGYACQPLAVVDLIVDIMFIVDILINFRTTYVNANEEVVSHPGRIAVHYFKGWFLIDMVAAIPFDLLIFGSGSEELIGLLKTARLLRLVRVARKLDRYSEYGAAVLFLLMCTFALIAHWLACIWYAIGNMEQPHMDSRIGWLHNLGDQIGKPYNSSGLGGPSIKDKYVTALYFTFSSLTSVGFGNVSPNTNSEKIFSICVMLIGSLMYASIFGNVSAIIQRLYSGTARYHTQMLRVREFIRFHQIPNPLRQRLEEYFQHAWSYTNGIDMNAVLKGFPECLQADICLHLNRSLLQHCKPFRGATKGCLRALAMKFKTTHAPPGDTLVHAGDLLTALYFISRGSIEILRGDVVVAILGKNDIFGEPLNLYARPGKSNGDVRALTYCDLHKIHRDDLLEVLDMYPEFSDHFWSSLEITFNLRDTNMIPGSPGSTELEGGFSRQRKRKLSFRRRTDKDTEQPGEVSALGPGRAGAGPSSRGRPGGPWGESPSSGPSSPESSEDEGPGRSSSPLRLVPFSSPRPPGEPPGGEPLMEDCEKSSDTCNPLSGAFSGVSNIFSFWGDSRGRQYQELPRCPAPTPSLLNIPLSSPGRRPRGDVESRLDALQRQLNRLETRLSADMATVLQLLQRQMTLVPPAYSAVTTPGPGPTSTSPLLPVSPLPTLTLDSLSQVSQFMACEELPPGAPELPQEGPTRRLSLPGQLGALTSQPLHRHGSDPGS

SMILES	hERG current change (%, negative = inhibition) at 1uM [%]
COc1ccc(NS(=O)(=O)c2cccc(C(=O)NNC(=O)c3ccc(NC(C)=O)cc3)c2)cc1	-11.6
CSc1ccc(/C=C2\C(=N)N3N=C(CC(=O)N4CCCCC4)SC3=NC2=O)cc1	19
CCOc1ccccc1OCCCC(=O)NNC(=O)c1cc(C)oc1C	12.2
CCCCCCC1/C(=N/O)CCC1C(=O)OC (stereo not drawn)	9.46
Cc1occc1C(=O)NNC(=O)C1CCCCC1	9.28
Cc1cccc(OCC(=O)OCC(=O)N(CC(C)C)c2c(N)n(Cc3ccccc3)c(=O)[nH]c2=O)c1C	1.56
C=C(C)COc1ccc(-c2nc(N)ncc2-c2ccc(Cl)cc2)c(O)c1	2.87
CC(C)C[C@H](N)C(=O)N1CCC(C(=O)N[C@H](C(=O)NC(C)c2ccccc2)C(C)C)CC1 (stereo partly drawn)	14.8
CC1Nc2ncnc(N3CCc4ccccc4C3)c2N(Cc2ccc(Cl)cc2)C1=O.O=C(O)C(F)(F)F (stereo not drawn)	19.4
CN(CCn1ccnc1)C(=O)CC1C(=O)NCCN1Cc1ccccc1C(F)(F)F (stereo not drawn)	9.63
COc1ccccc1/C=N/NC(=O)CNC(=O)c1ccc(S(=O)(=O)N(C)C)cc1	7.11
O=[N+]([O-])c1ccccc1S(=O)(=O)Nc1cccnc1	26.7
Cc1oc(/N=C/c2cccc3ccccc23)c(C#N)c1C	4.48
COC(=O)c1cc(OC)c(OC)cc1NC(=O)c1ccc(Br)o1	10.3
CC(Oc1ccccc1)C(=O)Nc1cccc([N+](=O)[O-])c1 (stereo not drawn)	-6.44
CCCCCCOC(=O)C(C#N)c1nc2ccccc2nc1N1CCN(C)CC1 (stereo not drawn)	-2.57
C/C(=N\NC(=S)NCc1ccccc1)c1cccc(Br)c1	13.8
O=C(CCCCn1c(=O)c2ccccc2n(Cc2ccccc2F)c1=O)NC1CCN(Cc2ccccc2)CC1	8.82
Cc1cc(C(=O)NCCCN2CCCC2=O)no1	22.7
CCCCn1c(-c2ccccc2C)nc2cc3[nH]c(=O)c(C(C)C)nc3cc21	2.47
CCOC(=O)c1cnn2c1[nH]c(=O)c1ccccc12	15.4
Cc1ccc(S(=O)(=O)N2CCCOC2CNC(=O)C(=O)NCc2ccccn2)cc1 (stereo not drawn)	13.5
NC(=O)NC(=O)COC(=O)c1sc2ccccc2c1Cl	3.3
Cc1ccc(CCNC(=O)CN(C)S(=O)(=O)c2ccc3c(c2)n(C)c(=O)c(=O)n3C)cc1	-4.05
